Measurements from PMC3326058.
Results are given in words; binding and its absence hold for the method and conditions named. Binding seen in cells or lysates may run through a third protein. Some binding calls cover weakened binding; strength is not graded here. For some of these results: Where a sequence is shown, tags or fusion partners need not be part of it.

The chains behind the UniProt entries cited, without tags or fusion partners.
UniProt P41229: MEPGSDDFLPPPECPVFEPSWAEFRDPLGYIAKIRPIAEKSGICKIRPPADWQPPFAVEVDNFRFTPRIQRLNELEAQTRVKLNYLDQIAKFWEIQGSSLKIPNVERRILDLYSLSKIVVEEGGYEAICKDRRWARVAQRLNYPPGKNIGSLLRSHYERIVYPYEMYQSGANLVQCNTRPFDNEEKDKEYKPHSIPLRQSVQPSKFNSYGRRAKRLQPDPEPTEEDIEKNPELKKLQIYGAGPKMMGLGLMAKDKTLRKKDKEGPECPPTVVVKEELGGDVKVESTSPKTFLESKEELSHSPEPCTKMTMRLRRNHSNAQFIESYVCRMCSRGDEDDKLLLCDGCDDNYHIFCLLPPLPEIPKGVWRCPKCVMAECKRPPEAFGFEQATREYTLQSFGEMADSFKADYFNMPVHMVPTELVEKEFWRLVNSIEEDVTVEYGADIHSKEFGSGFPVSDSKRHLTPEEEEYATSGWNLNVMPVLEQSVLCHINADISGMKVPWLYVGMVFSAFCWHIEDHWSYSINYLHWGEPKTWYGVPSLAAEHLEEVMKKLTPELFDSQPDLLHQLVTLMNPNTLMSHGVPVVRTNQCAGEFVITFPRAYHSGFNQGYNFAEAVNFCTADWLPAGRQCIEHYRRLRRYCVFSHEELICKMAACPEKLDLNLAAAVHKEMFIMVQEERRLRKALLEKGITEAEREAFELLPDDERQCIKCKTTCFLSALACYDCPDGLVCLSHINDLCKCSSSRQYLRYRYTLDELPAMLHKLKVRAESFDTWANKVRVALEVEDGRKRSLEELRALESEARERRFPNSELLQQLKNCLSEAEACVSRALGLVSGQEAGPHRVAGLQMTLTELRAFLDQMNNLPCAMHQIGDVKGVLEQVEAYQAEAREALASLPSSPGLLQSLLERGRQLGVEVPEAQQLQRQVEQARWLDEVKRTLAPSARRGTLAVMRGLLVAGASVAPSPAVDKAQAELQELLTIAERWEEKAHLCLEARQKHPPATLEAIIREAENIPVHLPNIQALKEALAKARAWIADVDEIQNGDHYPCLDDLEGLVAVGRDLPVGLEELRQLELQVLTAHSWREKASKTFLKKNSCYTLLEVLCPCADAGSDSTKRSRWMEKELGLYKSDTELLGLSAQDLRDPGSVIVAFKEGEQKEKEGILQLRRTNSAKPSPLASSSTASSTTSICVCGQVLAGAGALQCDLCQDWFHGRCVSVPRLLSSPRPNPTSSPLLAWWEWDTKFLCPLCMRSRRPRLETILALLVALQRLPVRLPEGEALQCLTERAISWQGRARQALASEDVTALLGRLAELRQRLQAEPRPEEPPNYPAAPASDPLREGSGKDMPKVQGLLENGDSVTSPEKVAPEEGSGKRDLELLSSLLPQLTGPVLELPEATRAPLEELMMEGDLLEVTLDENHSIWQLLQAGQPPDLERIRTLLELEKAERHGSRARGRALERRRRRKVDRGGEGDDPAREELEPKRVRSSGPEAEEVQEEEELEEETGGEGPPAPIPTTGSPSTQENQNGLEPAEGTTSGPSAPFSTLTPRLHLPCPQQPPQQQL

Key:
Experiment in all cases: co-IP; reverse order: Flag-tagged JMJD protein or JMJD2D fragment and p53 coexpressed in HEK293T; lysis in 50 mM Tris-HCl pH 7.4, 150 mM NaCl, 0.5% NP-40; anti-Flag (M2) immunoprecipitation, anti-p53 (DO-1) Western blot
Flag-tagged SMCX = Flag-tagged SMCX (UniProt P41229)
[1] = molecular target: T1, Flag-tagged JMJD2D amino acids 241-523 (human) (UniProt Q6B0I6)
T1 sequence: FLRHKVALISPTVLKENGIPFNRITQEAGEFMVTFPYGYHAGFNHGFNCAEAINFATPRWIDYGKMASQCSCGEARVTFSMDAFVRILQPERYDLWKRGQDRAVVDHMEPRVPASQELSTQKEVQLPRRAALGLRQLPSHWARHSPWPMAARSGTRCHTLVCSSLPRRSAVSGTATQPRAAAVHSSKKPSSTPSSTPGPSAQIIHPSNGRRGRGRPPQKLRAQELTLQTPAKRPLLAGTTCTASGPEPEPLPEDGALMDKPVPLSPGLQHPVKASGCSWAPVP

Flag-tagged JHDM1A = molecular target: T2, Flag-tagged JHDM1A (UniProt Q9Y2K7)
T2 sequence: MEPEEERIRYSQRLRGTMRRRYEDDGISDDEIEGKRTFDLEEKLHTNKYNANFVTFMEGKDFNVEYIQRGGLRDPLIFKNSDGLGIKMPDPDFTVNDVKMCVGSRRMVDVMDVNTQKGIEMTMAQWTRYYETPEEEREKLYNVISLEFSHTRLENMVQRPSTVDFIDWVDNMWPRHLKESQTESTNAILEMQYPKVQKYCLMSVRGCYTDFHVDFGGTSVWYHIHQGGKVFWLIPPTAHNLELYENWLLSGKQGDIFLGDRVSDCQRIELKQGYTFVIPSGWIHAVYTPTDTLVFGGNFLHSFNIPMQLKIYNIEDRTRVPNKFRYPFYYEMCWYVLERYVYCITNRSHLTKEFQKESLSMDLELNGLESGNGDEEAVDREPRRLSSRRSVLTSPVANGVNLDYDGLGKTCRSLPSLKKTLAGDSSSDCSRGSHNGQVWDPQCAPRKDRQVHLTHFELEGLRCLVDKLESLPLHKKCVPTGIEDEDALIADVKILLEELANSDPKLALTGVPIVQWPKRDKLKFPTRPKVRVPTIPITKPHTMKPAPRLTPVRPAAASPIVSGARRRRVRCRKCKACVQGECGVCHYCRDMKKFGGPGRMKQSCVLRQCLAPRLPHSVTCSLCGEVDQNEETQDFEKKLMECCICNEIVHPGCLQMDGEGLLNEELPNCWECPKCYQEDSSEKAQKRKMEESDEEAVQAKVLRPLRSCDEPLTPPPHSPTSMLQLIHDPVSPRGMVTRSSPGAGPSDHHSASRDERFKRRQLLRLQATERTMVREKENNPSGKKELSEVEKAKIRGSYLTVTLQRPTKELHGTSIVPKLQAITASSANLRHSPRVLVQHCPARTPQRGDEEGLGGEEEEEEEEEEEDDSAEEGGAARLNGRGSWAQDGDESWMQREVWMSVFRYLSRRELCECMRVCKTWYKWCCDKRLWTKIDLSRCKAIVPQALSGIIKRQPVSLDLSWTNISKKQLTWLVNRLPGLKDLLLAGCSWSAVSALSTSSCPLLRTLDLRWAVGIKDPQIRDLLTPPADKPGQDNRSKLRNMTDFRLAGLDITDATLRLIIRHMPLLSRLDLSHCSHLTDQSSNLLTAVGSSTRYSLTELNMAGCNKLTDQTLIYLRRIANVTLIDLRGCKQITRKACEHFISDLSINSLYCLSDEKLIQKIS

[2] = molecular target: T3, Flag-tagged JMJD2D N-terminal 354 amino acids (human) (UniProt Q6B0I6)
T3 sequence: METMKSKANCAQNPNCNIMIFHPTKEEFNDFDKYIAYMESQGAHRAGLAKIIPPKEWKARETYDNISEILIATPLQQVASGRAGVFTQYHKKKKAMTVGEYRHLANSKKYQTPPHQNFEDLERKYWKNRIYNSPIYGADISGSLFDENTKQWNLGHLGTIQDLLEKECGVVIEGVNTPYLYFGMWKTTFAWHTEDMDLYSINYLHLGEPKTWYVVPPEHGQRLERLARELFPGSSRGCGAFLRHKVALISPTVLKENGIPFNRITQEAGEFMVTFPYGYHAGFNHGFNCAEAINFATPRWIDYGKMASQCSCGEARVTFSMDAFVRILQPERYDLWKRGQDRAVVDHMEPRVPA

binding (Flag-tagged SMCX): no binding
binding [1]: binds
binding (Flag-tagged JHDM1A): no binding
binding [2]: no binding
Substance: p53 (expressed from pcDNA3-p53) (from UniProt P04637 1-393)
